The experiment addresses T1, IL-10 receptor human IL10RA-his (purchased from Beijing Yiqiao Shenzhou Technology Co., Ltd.) (human, UniProt Q13651 22-235).
T1 construct: Bought protein coated on the ELISA plate; also called IL10RA protein; IL-10 receptor proteins; not shown: his tag
T1 sequence (looked up): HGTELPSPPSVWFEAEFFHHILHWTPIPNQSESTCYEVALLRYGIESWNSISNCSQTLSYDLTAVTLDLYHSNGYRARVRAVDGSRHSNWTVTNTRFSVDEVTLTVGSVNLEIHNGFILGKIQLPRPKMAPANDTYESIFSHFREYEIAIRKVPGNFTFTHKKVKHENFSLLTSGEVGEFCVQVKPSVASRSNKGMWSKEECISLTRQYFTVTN
As to the kind of experiment: ELISA, human IL10RA-his coated on plate, detection with HRP goat anti-human IgG Fc. The protocol: The IL-10 receptor human IL10RA-his (purchased from Beijing Yiqiao Shenzhou Technology Co., Ltd.) was diluted to 0.5 μg/mL with the PBS buffer of pH 7.4 and coated into 96-well ELISA plates at 100 μL/well and allowed to stand overnight at 4° C. The plate was blocked with 1% BSA blocking solution for 1 hour, and then washed 3 times with PBST. The purified antibody was diluted to 10 μg/mL with 0.5% BSA sample diluent as the starting concentration and 3-fold diluted in 11 gradients, and set up a negative control with irrelevant antibodies and a positive control (IL-10), and it was added 100 μL per well, incubated for 1 h at 37° C. The plate was washed 3 times with PBST and HRP-labelled goat anti-human IgG Fc (Jackson Cat: 109-035-098) was diluted according to 1:10000 with sample diluent and it was added 100 μL per well and incubated for 1 h at room temperature. After washing the plate 4 times with PBST, it was added 100 μL of TMB substrate per well and incubated at room temperature without light for 10 min. […]
The absorbance value of each well in the 96-well plate was measured on a multifunctional enzyme standard at a wavelength of 450 nm and a reference wavelength of 570 nm, absorbance value (OD) per well=OD450 nm-OD570 nm. The concentration of the antibodies were logarithmically plotted as the horizontal coordinate and the measured absorbance value per well as the vertical coordinate. […]
A general note: An ELISA detects its analyte on a solid surface through an enzyme-linked reagent.

B1: constructed antibody (heterodimeric protein: B7H3-targeting light chain and first heavy chain, with a second heavy chain of Fc fused to IL-10) (other)
heavy: QVQLQQSGAELVKPGASVKLSCKASGYTFTNYDINWVRQRPEQGLEWIGWIFPGDGSTQYNEKFKGKATLTTDTSSSTAYMQLSRLTSEDSAVYFCARQTTATWFAYWGQGTLVTVSAASTKGPSVFPLAPSSKSTSGGTAALGCLVKDYFPEPVTVSWNSGALTSGVHTFPAVLQSSGLYSLSSVVTVPSSSLGTQTYICNVNHKPSNTKVDKKV[sequence of human IgG1 Fc with D270N T366W (EU numbers) omitted]
light: DIVMTQSPATLSVTPGDRVTLSCRASQSISDYLYWYQQKSHESPRLLIKYASQSISGIPSRFSGSGSGSDFTLSINSVEPEDVGVYYCQNGHSFPLTFGAGTKLELKRTVAAPSVFIFPPSDEQLKSGTASVVCLLNNFYPREAKVQWKVDNALQSGNSQESVTEQDSKDSTYSLSSTLTLSKADYEKHKVYACEVTHQGLSSPVTKSFNRGEC
chain: SPGQGTQSENSCTHFPGNLPNMLRDLRDAFSRVKTFFQMKDQLDNLLLKESLLEDFKGYLGCQALSEMIQFYLEEVMPQAENQDPDIKAHVNSLGENLKTLRLRLRRCHRFLPCENKSKAVEQVKNAFNKLQEKGIYKAMSEFDIFINYIEAYMTMKIRNGGGGSGGGGSGGGGSSPGQGTQSENSCTHFPGNLPNMLRDLRDAFSRVKTFFQMKDQLDNLLLKESLLEDFKGYLGCQALSEMIQFYLEEVMPQAENQDPDIKAHVNSLGENLKTLRLRLRRCHRFLPCENKSKAVEQVKNAFNKLQEKGIYKAMSEFDIFINYIEAYMTMKIRNGGGGS[sequence of human IgG1 Fc with D270N Y407A (EU numbers) omitted]
notes: Three chains co-expressed in ExpiCHO and purified by Protein A and an ionic column; A signal peptide was added at the nucleotide level; also called constructed antibodies; target antibody
For the molecule B1, the binding result is on record as “binds”.

The values are drawn from patent US20240392007A1 (SHENGHE CHINA BIOPHARMACEUTICAL, published 2024).
